# Laboratory results: PubChem BioAssay AID504466 (National Center for Advancing Translational Sciences (NCATS), 2011)
# Hit rate of the full screen: of about 330,000 compounds, about 4,200 (1.3%) were called active. Inconclusive means that the source gave no clear call. Such entries were picked first, then a sample of the others. The call rests on the fitted dose curve; in most records, active means well fitted activation curve with a large enough effect; inconclusive means small, poorly fitted or top-dose-only effect; inactive means no such curve, though single readings can be large or run the other way. Potencies of inconclusive entries are doubtful fits and often do not repeat.
# Assay: qHTS screen for small molecules that induce genotoxicity in human embryonic kidney (HEK293T) cells expressing luciferase-tagged ELG1; further: nearly all actives have a fitted effect of over 60% in size; on activity change, positive = activation: % of control where 0% means no effect
# Details: HEK293T ELG1-luciferase reporter, luminescence, 16 h; series mostly up to 46 µM
# How it was run: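 After overnight (16 hr) compound treatment at 37 °C, ELG1-luciferase HEK293T cells were lysed with ONE-Glo; luminescence quantified 30 min later at room temperature.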
# Potency means the concentration at half of the fitted maximal effect; tags describe the fitted curve by direction and shape.
Structure (SMILES),Potency,"activity change, positive = activation"
CC(C)N(Cc1nccn1C)C(=O)CCc1nnc(CCCc2ccccc2)o1,"inconclusive: 16.4 µM [activator, partial curve]",
Cc1nc2ccccc2c(=O)n1-c1ccc([N+](=O)[O-])cc1,"inconclusive: 32.6 µM [activator, partial curve, poor fit]",
COC(=O)C1=C(c2ccc(F)cc2OCc2ccccc2)C[C@@H]2CC[C@H]1N2C(=O)NCc1ccc(C(F)(F)F)cc1,inactive,
COc1ccc(C)cc1NC(=O)CN1CCN(CC(=O)Nc2ccccc2F)CC1,"inconclusive: 5.8 µM [activator, full curve, poor fit]",
CCN(CC)c1ccc(C=C2C(=O)NC(=S)NC2=O)cc1,"inconclusive: 25.9 µM [activator, single point]",
CCCCCCn1c(O)c(C(C)=NC)c(=O)[nH]c1=O,"inconclusive: 29.1 µM [activator, partial curve, poor fit]",
CCn1c(C)c(C(=O)Nc2ccc(OC)cc2)c2cc(OC)ccc21,"inconclusive: 9.2 µM [activator, partial curve, poor fit]",
CCC(=O)c1ccc(OC(=O)N(C)c2ccccc2)cc1,active: 14.6 µM,
COc1ccc(NC(=O)Nc2cccc3cccnc23)cc1,"inconclusive: 10.3 µM [activator, partial curve, poor fit]",
Cc1cc2ccccc2n1CCNC(=O)COc1ccccc1,"inconclusive: 18.4 µM [activator, partial curve, poor fit]",
CC(C)(C)c1ccc(OC(=O)N2CCCCC2)cc1,"inconclusive: 8.2 µM [activator, partial curve]",
O=C(/C=C/c1ccc2c(c1)OCO2)c1c(O)n(CCc2ccccc2)c(=O)[nH]c1=O,inactive,
CCOc1ccc(N2C(=O)/C(=C\c3cccs3)C(=O)NC2=S)cc1,"inconclusive: 31.6 µM [activator, single point]",
CCOc1ccc(NC(=O)C(=S)NC2CCCCC2)cc1,"inconclusive: 14.6 µM [activator, partial curve, poor fit]",
COC(=O)c1c(C)n(Cc2ccccc2)c2ccc(O)cc12,inactive,
O=C(c1cc2c(s1)CCCC2)N1CCC2(CC1)OCCO2,"inconclusive: 25.9 µM [activator, single point]",
COc1ccc(NC(=O)CCCn2c(=O)oc3ccccc32)cc1Cl,"inconclusive: 16.4 µM [activator, single point]",
COc1ccc(S(=O)(=O)Nc2ccccc2OC)cc1N=Nc1c(O)[nH]c(=S)[nH]c1=O,"inconclusive: 23.1 µM [activator, single point]",
CC(Cc1ccccc1)NC(=O)c1ccc(N)cc1 (stereo unspecified),"inconclusive: 20.6 µM [activator, partial curve, poor fit]",
CC(=O)n1cc(C=C2C(=O)NC(=O)NC2=O)c2ccccc21,,inactive: 0.749% [at 9.26 µM]
CN(C)C(=O)Oc1ccc2ccccc2c1Cl,"inconclusive: 10.3 µM [activator, partial curve]",

Structure (SMILES),Potency,"activity change, positive = activation"
Cc1ccc(NC(=O)O/N=C/c2cccc([N+](=O)[O-])c2)cc1,"inconclusive: 25.9 µM [activator, partial curve, poor fit]",
CC(=O)c1ccc(NC(=O)CSc2nc(=O)cc(N)n2-c2ccccc2)cc1,"inconclusive: 23.1 µM [activator, partial curve, poor fit]",
COc1ccc(N2C(=O)/C(=C/c3ccc(N(C)C)o3)C(=O)NC2=S)cc1,"inconclusive: 13 µM [activator, partial curve, poor fit]",
Cc1cc(=O)oc2cc3c(cc12)CCCN3,"inconclusive: 18.3 µM [activator, partial curve, poor fit]",
COc1cccc(N2C(=O)NC(=O)/C(=C\c3cn(C)c4ccccc34)C2=O)c1,"inconclusive: 20.6 µM [activator, partial curve, poor fit]",
CCC(=Nc1ccccc1N)c1c(O)[nH]c(=O)[nH]c1=O,"inconclusive: 18.3 µM [activator, partial curve, poor fit]",
CN(CC(=O)N1CCc2ccccc21)S(=O)(=O)c1cccs1,active: 10.3 µM,
O=C1NC(=S)NC(=O)C1=Cc1ccc(Br)s1,"inconclusive: 20.6 µM [activator, partial curve, poor fit]",
NC(Cc1ccccc1)c1nc(-c2ccccc2)no1 (stereo unspecified),"inconclusive: 20.6 µM [activator, partial curve, poor fit]",
Clc1cccc(/C=N\Nc2nccs2)c1,active: 20.6 µM,
CCCCn1c(O)c(/C=C/C=Nc2ccccc2)c(=O)[nH]c1=O,inactive,
c1ccc2c(CN3CCCCCC3)c[nH]c2c1,"inconclusive: 16.4 µM [activator, single point]",
COc1ccc(C[C@@H]2c3cc(O)c(OC)cc3CCN2C)cc1O,inactive,
CCCCCn1c(Sc2ccccc2)nc2c1c(=O)[nH]c(=O)n2C,"inconclusive: 20.6 µM [activator, partial curve]",
CCC(C)C1NC(=O)C(C(C)=O)=C1O (stereo unspecified),"inconclusive: 23.1 µM [activator, partial curve, poor fit]",
COc1cc2[nH]c(=O)n(Cc3ccc(C(=O)NC4CCCC4)cc3)c(=O)c2cc1OC,"inconclusive: 25.9 µM [activator, partial curve, poor fit]",
CCOc1ccc(Oc2nc(NCC(C)C)nc(N(C)C)n2)nn1,"inconclusive: 11.6 µM [activator, partial curve]",
C#CCOc1cc(C2C3=C(COC3=O)Nc3cc4c(cc32)OCO4)ccc1OC (stereo unspecified),"inconclusive: 7.3 µM [activator, partial curve]",
C#CCN1C(=O)S/C(=C\c2ccc(N3CCOCC3)cc2C)C1=O,"inconclusive: 18.3 µM [activator, partial curve]",
FC(F)(F)c1ccc2c(c1)N(CCCN1CCN(CCCl)CC1)c1ccccc1S2,"inconclusive: 20.6 µM [activator, partial curve, poor fit]",
